Laboratory results published in the supplement of paper PMC11880418.
Where a name gives a salt, the structure may show the parent alone. The list shows a part of the results. The data scatter; read single values as rough.

system: PANC1; assay: ALDHbr (CSC) cell proportion score relative to DMSO vehicle (ratio to DMSO); breast (SUM159) / gastric (MKN45) / pancreatic (PANC1) / colon cancer lines; ALDHbr cells have high ALDH activity and are rich in cancer stem cells (CSC); higher = more CSC (ALDHbr) cells remaining; conditions: 10 µM; 72 h
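Further: High-content imaging of ALDEFLUOR-stained cells with Hoechst-labelled nuclei in 384-well plates, triplicate wells, scored as Z-score against 0.1% DMSO vehicle, negative meaning fewer ALDHbr cells.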

Compound	ALDHbr
CC(=O)O[C@]1(C(C)=O)CC[C@H]2[C@@H]3C=C(Cl)C4=CC(=O)CC[C@]4(C)[C@H]3CC[C@@]21C [Chlormadinone acetate]	0.691
O=c1oc2ccccc2c(O)c1Cc1c(O)c2ccccc2oc1=O [Dicumarol]	0.894
CC(C)(C)NCC(O)COc1cccc2c1CCC(=O)N2 (centres undefined) [Carteolol hydrochloride]	0.839
CN(CCCCCCCCCCN(C)C(=O)Oc1cccc([N+](C)(C)C)c1)C(=O)Oc1cccc([N+](C)(C)C)c1 [Demecarium bromide]	0.713
Clc1ccc(CSC(Cn2ccnc2)c2ccc(Cl)cc2Cl)cc1 (centres undefined) [Sulconazole nitrate]	1.72
COc1ccc(C(=O)NCc2ccc(OCCN(C)C)cc2)cc1OC [Itopride]	0.878
CN(C)C(=N)NC(=N)N [Metformin hydrochloride]	0.833
CN(C)CCN(Cc1cccs1)c1ccccn1 [Methapyrilene hydrochloride]	0.926
Cn1c([N+](=O)[O-])cnc1COC(N)=O [Ronidazole]	1.11
O=C(O)c1ccccc1Nc1cccc(C(F)(F)F)c1 [Flufenamic acid]	1.05
Clc1ccc(C(Cn2ccnc2)OCc2csc3c(Cl)cccc23)c(Cl)c1 (centres undefined) [Sertaconazole nitrate]	1.71
C=CC1=C(C(=O)O)N2C(=O)[C@@H](NC(=O)/C(=N\O)c3csc(N)n3)[C@H]2SC1 [Cefdinir]	0.963
Cc1c(C)c2c(c(C)c1O)CCC(C)(COc1ccc(CC3SC(=O)NC3=O)cc1)O2 (centres undefined) [Troglitazone]	0.847
CNCC(O)c1ccc(OC(=O)C(C)(C)C)c(OC(=O)C(C)(C)C)c1 (centres undefined) [Dipivefrin hydrochloride]	0.792
C[C@]12C=CC(=O)C=C1CC[C@H]1[C@@H]3C[C@@H](O)[C@](O)(C(=O)CO)[C@@]3(C)C[C@H](O)[C@@]12F [Triamcinolone]	0.588
CCN(CC)CCOC(=O)C(c1ccccc1)C1CCCCC1 (centres undefined) [Drofenine hydrochloride]	0.967
O=C1CC2(CCCC2)CC(=O)N1CCCCN1CCN(c2ncccn2)CC1 [Buspirone hydrochloride]	0.701
CC(C)(C)NCC(O)c1ccc(O)c(CO)c1 (centres undefined) [Salbutamol]	0.818
NC1CCN(c2nc3c(cc2F)c(=O)c(C(=O)O)cn3-c2ccc(F)cc2F)C1 (centres undefined) [Tosufloxacin hydrochloride]	0.797
Cc1ccc(C)c(OCCCC(C)(C)C(=O)O)c1 [Gemfibrozil]	0.844

Compound	ALDHbr
N#Cc1ccc(C(c2ccc(C#N)cc2)n2cncn2)cc1 [Letrozole]	0.925
CN/C(=N\CCSCc1nc[nH]c1C)NC#N [Cimetidine]	0.846
C[C@@H](O)[C@H]1C(=O)N2C(C(=O)O)=C(SCCNC=N)C[C@H]12 [Imipenem]	0.961
COC(c1ccccc1)(c1ccccc1)[C@H](Oc1nc(C)cc(C)n1)C(=O)O [Ambrisentan]	0.925
CN(C)CCOc1ccc(/C(=C(/CCCl)c2ccccc2)c2ccccc2)cc1 [Toremifene]	0.916
CN[C@@H]1[C@H](O[C@H]2[C@H](O[C@H]3[C@H](O)[C@@H](O)[C@H](NC(=N)N)[C@@H](O)[C@@H]3NC(=N)N)O[C@@H](C)[C@]2(O)CO)O[C@@H](CO)[C@H](O)[C@H]1O [Dihydrostreptomycin sulfate]	0.894
O=C(O)CCNC(=O)c1ccc(/N=N/c2ccc(O)c(C(=O)O)c2)cc1 [Balsalazide Sodium]	0.881
Cc1cccc(Nc2ccncc2S(=O)(=O)NC(=O)NC(C)C)c1 [Torsemide]	0.898
CN1[C@@H]2CC[C@H]1C[C@@H](OC(=O)c1c[nH]c3ccccc13)C2 [Tropisetron hydrochloride]	0.926
Nc1nc2[nH]cc(CCc3ccc(C(=O)N[C@@H](CCC(=O)O)C(=O)O)cc3)c2c(=O)[nH]1 [Pemetrexed disodium]	1.3
C[C@H](Cc1cc2c(c(C(N)=O)c1)N(CCCO)CC2)NCCOc1ccccc1OCC(F)(F)F [Silodosin]	0.995
NC(N)=Nc1nc(CSCC/C(N)=N/S(N)(=O)=O)cs1 [Famotidine]	0.741
CCNC(=O)CCC/C=C\C[C@@H]1[C@@H](/C=C/[C@@H](O)CCc2ccccc2)[C@H](O)C[C@@H]1O [Bimatoprost]	0.772
O=C(NCCNCC(O)COc1ccc(O)cc1)N1CCOCC1 (centres undefined) [Xamoterol hemifumarate]	0.924
Cc1ccc2c(c1)c1c3n2CCNC3CCC1 (centres undefined) [Pirlindole mesylate]	0.954
CC(C(O)c1ccc(O)cc1)N1CCC(Cc2ccccc2)CC1 (centres undefined) [Ifenprodil tartrate]	1.16
Cc1cc(C)nc(NS(=O)(=O)c2ccc(N)cc2)n1 [Sulfamethazine sodium salt]	0.952
COc1cccc(N(C)C(=S)Oc2ccc3c(c2)CCCC3)n1 [Liranaftate]	0.752
COc1cc([C@@H]2c3cc4c(cc3[C@@H](O[C@@H]3O[C@@H]5CO[C@@H](C)O[C@H]5[C@H](O)[C@H]3O)[C@H]3COC(=O)[C@H]23)OCO4)cc(OC)c1O [Etoposide]	0.77
